Laboratory results from the RNAGym collection of RNA variant scans (doi:10.7554/elife.90254).
Read counts are not given, so values of variants with three or more changes are uncertain.

B1: LINE1-full (parent)
chain: UACGUAGGUGGUUUUCCCCUGAUAGUGCUAAGGGGGCCUGGAAGUUUGGACUGGGCAGAGCUCAACACAGCGUGGCAAAGUGGCUGUGGCUAGACUGCCUCUCUGGAUUCCUCGUCACUCAGCAGGGCAUCUCUGAGAGAAAUGCC

Variants of: B1
Test: self-cleavage, relative activity (ratio to wild type); higher = more cleavage; in vitro, sequencing; the parent is a self-cleaving ribozyme

Variant	self-cleavage
UACGUAGGUGGUUUCCCCCUGAUAGUGCUAAGGGGGCCUGGAAGUUUGGACCGGGCAGAGCUCUACGCAGCGUGGCAAAGUGGCUGUGGCUAGACUGCCUCACUGGAUUCCUCGUCACUCAGCAGGGCACCUCUGUGGGAAAUGCC	1.31
UACGUAGGUGGUUUUCCCCUGAUAGUGCUAAGGGGGCCUGGAAGUUUGGACUGGGCAGAGCUCAACACGGCGUGGCAAGGUGGCUGUGGCUAGACUGCCUCUCUGGAUUCCUCGUCACUCAGCAGGGCAUCUCUGAGAGAUAUGCC	0.15
UACGUAGGUGGUCUUCCCCUGAUAGUGCUAAGGGGGCCUGGAAGUUUGGACUGGGCAGAGCUCAACACAGCGUGGCAAAGUGGCUGUGGCUAGACUGCCUCUCUGGAUUCCUCGCCACACAGCAGGGCAUCCCUGAGAGAAAUGCC	2.04
UACGUAGGUGGUUUCCCCCUGAUAGUGCUAAGGGGGCCUGGAAGUUUGGACUGGGCAGAGCUCAACACAGCGUGGCAAAGUGGCUGUGGCUAGACUGCCUCUCUGGGUUCCCCGUCACUCAGCAGGGCAUCUCUGAGAGAAAUGCC	1.82
UACGUAGGUGGUUUUCCCCUGAUAGUGCUAAGGGGGCCUGGAAGUUUGGACAGGGCAGAGCUCAACACAGCGUGGCAAAGUGGCUGUGGCUAGACUGCCACUCUGGACUCCUCGUCACUCAGCAGGGCAUCUCUGGGAGAAAUGCC	1.89
UACGUAGGUGGUUUUCCCCUGAUAGUGCUAAGGGGGCCUGGUAGUUUGGACUGGGCAGAGCUCAACACAGCGUGGCAAAGUGGCUGUGGCUGGACUGCCUCUCUGGAUUCCUCGUCACUCAGCGGGGCAUCUCUGAGAGAAAUGCC	0.1
UACGUAGGUGGUUUUCCCCUGAUAGUGCUAAGGGGGCCUGGAAGUUUGGACUGGGCAGAGCUCAACACAGCGUGGCAAAGUGGCAGUGGCUAGACUGCCUCUCUGGAUUCCUCGUCACACAGCAGGGCAUCUCUGAGAGAAACGCC	0.04
UACGUAGGUGGUUUUCCCCUGAUAGUGCUAAGGGGGCCUGGAAGUUUGGACUGGGCAGAGCUCAACACAGCGUGGCGGAGUGGCUGUGGCUGGACUGCCUCUCUGGAUUCCUCGUCACUCAGCAGGGCAUCUCUGAGAGAAAUGCC	0
UACGUAGGUGGUCUUCCCCUGAUAGUGCUAUGGGGGCCUGGAAGUUUGGACUGGGCAGAGCUCAACACGGCGUGGCAAAGUGGCUGUGGCUAGACUGCCUCACUGGAUUCCUCGUCACUCGGCAGGGCAUCUCUGAGAGAAAUGCC	0.42
UACGUAGGUGGUCUUCCCCUGAUAGUGCUAAGGGGCCCUGGAAGUUUAGACUGGGCAGAGCUCAACACAGCGUGGCAAAGUGGCUGUGGCUAGACUGCCUCUCUGGAUUCCUCGUCACUCAGCAAGGCAUCUCUGAGAGAAAUGCC	0.23
UACGUAGGUGGUUUUCCCCUGAUAGUGCUAAGGGGGCCUGGAAGUUCGGACUGGGCAGAGCCCAACACAGCGUGGCGAAGUGGCUGUGGCUAGACUGCUUCUCUGGAUUCCUCGUCACUCAGCAGGGCAUCUCCGAGAGAAAUGCC	0.05
UACGUAGGUGGUUUUCCCCUGAUAGUGCUAAGGGGGCCUGGAAGUUUGGACUGGGCAGAGCUUAACACAGCGUGGCAAAGUGGCUGUGGCUAGACUGCCUCUCUGGAUUCCUCGCCACUCAGCAGGGCAUCUCUGAGAGGAAUGCC	0.52
UACGUAGGUGGUUUUCCCCUGAUAGUGCUAAGGGGGCCUGGAAGCUUGGACUGGGCAGAGCUCAACACAGCGUGGCGAAGUGGCUGUGGCUAGACUGCCUCUCUGGACUCCUCGUCACUCAGCAGGGCAACUCUGAGAGAAAUGCC	1.67
UACGUAGGUGGUUUUCCCCUGAUAGUGCUAAGGGGGCCUGGAAGUUUGGACUGGGCAGAGCUCAACACAGCGUGGCAGAGCGGCUGUGGCUAGACCGCCUCUCUGGAUUCCUCGUCACUCAGCAGGGCAUCUCUGAGAGAAAUGCC	0.13
UACGUAGGUGGUUUUCCCCUGAUAGUGCUAAGGGGGCCUGGAAGUUUGGACUGGGCAGAGCCCAACACAGCGUGGCAAAGUGGCUGCGGCUAGACUGCCUCCCUGGAUUCCUCGUCACUCAGCAGGGCAUCUCUGAGAGAAAUGCC	0
UACGUAGGUGGUUUUCCCCUGAUAGUGCUAAGGGGACCUGGAAGUUUGGACUGGGCAGAGCUCAUCACAGCGUGGCAAAGUGGCUGUGGCUAGACUGCCUCUCUGGACUCCUCGUCACUCAGCAGGGCAUCUCUGAGAGAAAUGCC	0.24
UACGUAGGUGGUUUUCCCCUGAUAGUGCUAAGGGGGCCUGGUAGUUUGGACUGGGCAGAGCUCAACACAGCGUGGCUAAGUGGCAGUGGCUAGACUGCCUCUCUGGAUUCCUCGUCACUCAGCAGGGCAUCUCUGAGAGAAAUGCC	0.06
UACGUAGGUGGUUCUCCCCUGAUAGUGCUAAGGGGGCCUGGAAGUUUGGACCGGGCAGAGCUCAACACAGCGUGGCAAAGUGGCUGUGGCUAGACUGCCUCUCUGGAUUCCUCGUCACUCAGCGGGGCAUCUCUGAGAGAAAUGCC	0.64
UACGUAGGUGGUUUUCCCCUGAUGGUGCUAAGGGGGCCUGGGAGUUUGGACUGGGCAGAGCUCAACACCGCGUGGCAAAGUGGCUGUGGCUAGACUGCCUCUCUGGAUUCCUAGACACUCAGCAGGGCAUCUCUGAGAGAAAUGCC	0.18
UACGUAGGUGGUUUUCCCCUGAUAGCGCUAAGGGGGCCCGGAGGUUUGGACUGGGCAGAGCUCAACACAGCGUGGCAAAGUGGCUGUGGCUAGACUGCCUCUCUGGAUUCCUCGUCACUCAGCAGGGCAUCUCUGAGAGAAAUGUC	1.23

Variant	self-cleavage
UACGUGGGUGGUUUUCCCCUGAUAGUGCUAAGGGGGCCUGGAAGUUUGGACAGGGCAGAGCUCAACUCAGCGUGGCGAAGUGGCUGUGGCUAGACUGCCUCUCUGGAUUCCUCGUCACUCAGCAGGGCAUCUCUGAGAGAAAUGCC	0.47
UCCGUAGGUGGUUUUCCCCUGAUAGUGCUAAGGGGGCCUGGAAGUUUGGACUGGGCAGAGCUCAACACAGCGUGGCAAAGUGGCUGUGGCUAGACUGCCUCUCUAGAUUCCUCGUCACUCAGCAGGGCAUCACUGAGAGAAAUGCC	1.1
UACGUAGGUGGUUUUCCCCUGAUAGUGCUGAGGGGGCCUGGAAGUUUGGACUAGGCAGAGCUCAACACAGCGUGGCAAAGUGGCUGUGGCUAGACUGCCUCUCUGGAUUCCUCGUCACUCGGCAGGGCAUCUCUGAGAGGAAUGCC	1.55
UGCGUAGGUGGUUUUCCCCUGAUAGUGCUAAGGGGGCCGGGAAGUUUGGACUGGGCAGAGCUCAACACAGCGUGGCAUAGUGGCUGUGGCUAGACUGCCUCUCUGGAUUCCUCGUCACUCAGCAGGGCAUCUCUGAGAGAAAUGCC	0.54
UACGUAGGUGGUUUUCCCCUGAUAGUGCUAAGGGGGCCUGGAAGUUUGGACUGGGCAGAGCUCAACACAGCGCGGCAAAGUGGCUGUGGCUAGACUGCCUCUCUGGAUUCCUCGUCACUCGGCAGGGCAUCUCUGAGGGAAAUGCC	1.31
UGCGUAGGUGGUUUUCCCCUGAUAGUGCUAAGGGGGCCUGGAAGUUUGGACUGGGCAGAGCUCUACGCAGCGUGGCAAAGCGGCUGUGGCUAGACUGCCACUCUGGAUUCCUCGUCACUCAGCAGGGCGUCUCUGAGAGAAAUGCC	0
UACGUAGGUGGUUUUCCUCUGAUAGUGCUAAGGGGGCCUGGAAGUUUGGACUGGGCAGAGCUCAACGCAGCGUGGCAAAGUGGCUGUGGCUAGGCUGCCUCUCUGGAUUCCUCGUCACUCAGCAGGGCAUCUCUGAGAGGAAUGCC	0.23
UACGUAGGUGGUUUUCCCCUGAUAGUGCUAAGGGGGCCUGGGAGUUUGGACUGGGCAGAGCUCAACACAGCGUGGUAAAGUGGCUGUGGCUAGACUGCCCCUCUGGAUUCCUCGUCACUCUGCAGGGCAUCUCUGAGAGAAGUGCC	1.74
UACGUAGGUGGUUUUCCCCUGGUAGUACUAAGGGGGCCUGGAAGUUUGGGCUGGGCAGAGCUCAACACAGCGUGGCAAAGUGGCUGUGGCUAGACUGCCUCUCUGGAUUCCUCGUCACUCAGCAGGGCAUCUCUGAGAGAAAUGCC	0.66
UACGUAGGUGGUUUUCCCCUGAUAGUGCUAAGGGGGCCUGGAAGUUUGGACUGAGCAGAGCUCAACACAGCGUGGCAAGGUGGCUGUGGCUAGACUGCCUCUCUGGAUUCCUCGUCACUCAGCAGGGCAUCUCUGGGAGAAAUGCC	0.63
UACGUAGGUGGUUUUCCCCUGAUAGUGCUAAGGGGGCCUGGAAGUUUGGACUGGGCAGAGCUCAACACAGCGUGGCAAAGUGGCAGCGGCUAGACUGCCUCUCUGGAUUCCUCGUCACUCAGCAGGGCAUCUCUGAGAGGAAUGCC	0.2
UACGUAGGCGGUUUUCCCCUGAUAGUGCUAAGGGGGCCUGGAAGUUUGGACUGGGCAGAGCUCAUCACAGCGUGGCGAAGUGGCUGUGGCUAGACUGCCUCUCUGGAUUCCUCGUCACUCAGCAGGGCAUCUCUGAGAGAAAUGCC	0.5
CACGUAGGUGGUUUUCCCCUGAUAGUGCUAAGGGGGCCUGGAAGUUUGGACUGGGCAGAGCUCAACACAGCGCGGUAAAGUGGCUGUGGCUAGACUGCCUCUCUGGAUUCCUCGUCACUCAGCAGGGCACCUCUGAGAGAAAUGCC	1.33
UACGUAGGUGGUUUUCCCCUGGUAGUACUAAGGGGGCCUGGAAGUUUGGACUGGGCAGAGCUCAAUACGGCGUGGCAAAGCGGCUGUGGCUAGACUGCCUCUCUGGAUUCCUCGUCACUCAGCAGGGCAUCUCUGAGAGAAAUGCC	0.13
UACGUAGGUGGUUUUCCCCUGAUAGUGCUAAGGGGGCCUGGAAGUUUGGACUGGGCAGAGCUCAACACAGCGUGGCAAAGUGGCUGUGGCUAGACUACCUCUCUGGAUUCCACGUCACUCAGCAGGGCCUCUCUGAGGGAAAUGCC	0.38
UACGUAGGUGGUUUUCCCCUGAUAGUGCUAAGGGGGCCUGGAUGUUUGGACUGGGCGGAGCUCAACACAGCGUGGCAGAGUGGCUGUGGCUAGACUGCCUCUCUGGAUUCCUCGUCACUCAGCAGGGCAUCUCUGAGAGAAAUGCC	0.57
UACGUAGGUGGUUUUCCCCUGAUAGUGCUAUGGAGGCCUGGAAGUUUGGACUGGGCAGAGCUCAACACAGCGUGGCAAAGUGGCUGUGGCUAGACUGCCUCUCUGGAUUCCUCGUCACUCAGCAGGGCAUCUCUGGGAGAAAUGCC	1.26
UACGUAGGUGGUUUUCCCCUGAUAGUGCUAAGGGGGCCUGGAAGUUUGGACUGGGCGAAGCUCAACACGGCGUGGCUAAGUGGCUGAGGCUAGACUGCCUCUCUGGAUUCCUCGUCACACGGCAUGGCAUCUCUGAGAGAAAUGCC	0.03
UACGUAGGUGGUCUUCCCCUGAUAGUGCUAAGGGGGCCCGGAAGUUUGGACUGGGCAGAGCUCAACACGGCGUGGCAAAGUGGCUGUGGCUAGACUGCCUCUCUGGAUUCCUCGUCACUCAGCAGGGCAUCUCUGAGAGAAAUGUC	0
